# Test results taken from publication PMC4336329 (PLoS ONE, 2015).
# Screen size: about 310,000 compounds; about 14,000 (4.5%) showed an effect of 50% or more. Effects have a minus sign here. Some of the results follow.
# Target: human ether-à-go-go-related gene (hERG) potassium channel (human, UniProt Q12809)
# Experiment: primary screen, population patch clamp on CHO cells stably expressing hERG
# 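Also: peak tail current of the secondary pulse compared with the same well before compound.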
# Chain of human ether-à-go-go-related gene (hERG) potassium channel (Q12809 whole entry, looked up): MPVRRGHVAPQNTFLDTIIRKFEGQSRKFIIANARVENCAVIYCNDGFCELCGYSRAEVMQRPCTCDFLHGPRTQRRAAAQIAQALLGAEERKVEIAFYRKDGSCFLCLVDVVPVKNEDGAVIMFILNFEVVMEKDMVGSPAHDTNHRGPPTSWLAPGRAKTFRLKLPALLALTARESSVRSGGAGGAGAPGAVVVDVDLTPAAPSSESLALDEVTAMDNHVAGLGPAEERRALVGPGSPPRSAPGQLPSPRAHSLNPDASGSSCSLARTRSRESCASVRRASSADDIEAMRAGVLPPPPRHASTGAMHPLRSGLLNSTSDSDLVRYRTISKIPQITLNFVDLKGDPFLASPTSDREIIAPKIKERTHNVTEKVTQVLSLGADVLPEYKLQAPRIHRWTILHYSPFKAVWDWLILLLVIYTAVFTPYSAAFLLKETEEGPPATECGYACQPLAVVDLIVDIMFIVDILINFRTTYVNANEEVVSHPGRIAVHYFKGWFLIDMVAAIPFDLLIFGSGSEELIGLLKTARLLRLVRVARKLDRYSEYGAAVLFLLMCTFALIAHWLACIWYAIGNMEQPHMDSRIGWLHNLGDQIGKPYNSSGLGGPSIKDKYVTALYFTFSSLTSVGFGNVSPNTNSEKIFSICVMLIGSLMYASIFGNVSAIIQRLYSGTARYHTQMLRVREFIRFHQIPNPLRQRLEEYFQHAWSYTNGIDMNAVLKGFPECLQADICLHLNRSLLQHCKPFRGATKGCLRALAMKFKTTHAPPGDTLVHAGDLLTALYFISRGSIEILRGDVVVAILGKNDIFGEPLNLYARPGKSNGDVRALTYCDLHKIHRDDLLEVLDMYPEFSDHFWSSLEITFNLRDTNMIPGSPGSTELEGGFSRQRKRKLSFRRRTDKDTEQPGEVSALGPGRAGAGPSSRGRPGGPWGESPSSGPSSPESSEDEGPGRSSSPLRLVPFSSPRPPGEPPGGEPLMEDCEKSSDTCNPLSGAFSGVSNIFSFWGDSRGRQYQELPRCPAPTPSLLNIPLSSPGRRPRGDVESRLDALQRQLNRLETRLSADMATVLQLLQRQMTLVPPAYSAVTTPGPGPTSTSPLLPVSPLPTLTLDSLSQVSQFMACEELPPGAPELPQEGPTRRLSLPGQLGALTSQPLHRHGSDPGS
row,Structure (SMILES),"hERG current change (%, negative = inhibition) at 10uM [%]"
1,CO[C@H]1C=CO[C@@]2(C)Oc3c(C)c(O)c4c(O)c(c(C=NN5CCN(C)CC5)c(O)c4c3C2=O)NC(=O)C(C)=CC=C[C@H](C)[C@H](O)[C@@H](C)[C@@H](O)[C@@H](C)[C@H](OC(C)=O)[C@@H]1C,-41.6
2,CC1CC(C)(C)NC(=S)N1CC(=O)NCc1ccc2c(c1)OCO2 (centres unmarked),1.92
3,O=C(NCC1CCCO1)c1ccc2c(c1)N(Cc1ccccc1)C(=O)CS2=O (centres unmarked),-2.18
4,Cc1ccc(Cn2c(=O)n(C)c(=O)c3sccc32)cc1,6.76
5,Cc1cc(C)cc(NC(=O)CSc2nnc(-c3cc(C)[nH]n3)n2N)c1,12.5
6,Cc1ccc(C)c(N2CCN(C(=O)C3CCN(c4nc(C)cc(C)n4)CC3)CC2)c1,-10.3
7,C=CCn1c(SCC(=O)N2CCOCC2)nc2sc3c(c2c1=O)CCCC3,-53.9
8,O=C(NCc1cccnc1)c1cc2ccccc2oc1=O,-4.41
9,O=c1[nH]nc(SCc2nc3ccccc3s2)n1C1CC1,6.94
10,CSc1ncc(C(=O)Nc2cccc(Cl)c2)c(C)n1,10.9
11,S=C(NCC1CCCO1)Nc1cc(Cl)c(Cl)cc1Cl (centres unmarked),2.9
12,O=C(NCc1ccco1)c1cc(-c2ccc(F)cc2)on1,7.88
13,CCN(CC)CCCNC(=S)N1CCN(c2nc(-c3ccccc3)cs2)CC1,-26.5
14,COc1ccc(CC(=O)NC(=S)Nc2cccc(C)c2)cc1,5.19
15,Cc1cccc(-c2nc(=S)c3c(o2)CCCC3)c1,0.759
16,O=[N+]([O-])c1ccc(COc2cccc3cccnc23)cc1,-11.2
17,CCN(CC)CCNc1nc(-c2ccc(OC)cc2)c(-c2ccc(OC)cc2)s1,-52.6
18,COC(=O)c1ccn(C(=O)c2ccc(Cl)cc2)n1,9.16
19,COc1ccccc1NC(=O)CC(=O)c1cccc([N+](=O)[O-])c1,6.64

row,Structure (SMILES),"hERG current change (%, negative = inhibition) at 10uM [%]"
1,CCOCCCN(C)C1CCN(C(=O)c2oc3ccccc3c2NC(=O)Cc2cccc([N+](=O)[O-])c2)CC1,-75.3
2,CCCC(=O)N(c1ccc2oc(C)c(C(C)=O)c2c1)S(=O)(=O)c1ccc(C)c([N+](=O)[O-])c1,2.43
3,C/C(=N\NC(=O)c1cccc(S(=O)(=O)N2CCOCC2)c1)c1ccco1,-4.41
4,COC(=O)CCCCCN1C(=O)NC(C2CC2)C(C(=O)OCc2ccccc2)=C1C (centres unmarked),-16.4
5,CCN(Cc1ccc(OC)c(F)c1)C(=O)c1cc2ccccc2o1,-24.7
6,COc1cc(C(C)=O)ccc1OCc1nnc(-c2ccccc2Br)o1,-17
7,CCCCc1c(CCC)c(=N)c2ccccc2n1C.I,-46
8,Cc1cc(=O)n2[nH]c(N3C(=O)CCC3=O)nc2n1,10.3
9,CC(=O)Nc1ccc(S(=O)(=O)NCCC(=O)OCC(=O)c2ccc(F)c(F)c2)cc1,11.3
10,Cc1nc(N2CCOCC2)[nH]c(=O)c1[N+](=O)[O-],16.7
11,COc1ccc(NC(=O)CO/N=C2\CCCc3nonc32)cc1,-1.57
12,Cn1c(CNC(=O)c2ccc3c(c2)OCO3)nnc1SCC(=O)Nc1ccccc1F,8.83
13,COC(=O)Cc1ccc(NC(=O)c2ccccc2Cl)cc1,18.6
14,N#Cc1c(-c2cccnc2)c2c([nH]c1=S)CCCC2,12.9
15,COc1ccc(NC(=O)c2cc3ccc4c5ccccc5[nH]c4c3cc2O)cc1,11.9
16,Cc1ccc(C(=O)OCC(=O)N2CC(=O)Nc3ccccc32)s1,15.5
17,O=C(O)CNc1nc(-c2ccccc2)nc2c1oc1ccccc12,9.72
18,Cc1ccc(Cl)cc1NC(=O)c1ocnc1C,3.52
19,CCOc1ccc(NC(=O)c2ccncc2)cc1,20.9

row,Structure (SMILES),"hERG current change (%, negative = inhibition) at 10uM [%]"
1,Cc1ccc(S(=O)(=O)CC(=O)Nc2nc(C(C)(C)C)cs2)cc1,-27
2,NC(=O)SCC(=O)Nc1ccccc1C(=O)O,34.5
3,NC(=O)c1ccccc1NS(=O)(=O)c1ccc(S(=O)(=O)N2CCCC2)cc1,1.87
4,CCn1c(C(=O)Nc2ccsc2C(=O)OC)cc2sc(Cl)cc21,17.8
5,CC(Oc1ccc2ccccc2c1)C(=O)NNC(=O)Nc1ccccc1 (centres unmarked),19
6,CC(=O)Nc1cccc(OCCCNS(=O)(=O)c2ccc(F)cc2)c1,-8.22
7,O=C(COC(=O)C1CC2CCCC(C1)C2=O)Nc1cccc(F)c1 (centres unmarked),-16.2
8,COc1cc(NC(=O)CSc2nccc(=O)[nH]2)c(C)cc1[N+](=O)[O-],5.29
9,O=C(CC1C(=O)NCCN1C(=O)Nc1ccccc1)Nc1cccc(Cl)c1 (centres unmarked),-5.5
10,O=[N+]([O-])c1c(NCCCO)cc(SCc2ccco2)c2nonc12,-23.9
11,CN1/C(=C\C(=O)Nc2ccc(Br)cc2)C(C)(C)c2ccccc21,1.65
12,Cc1nc(S/C(=C/c2ccc(-c3cccc(Cl)c3)o2)C(=O)O)n[nH]1,17.6
13,COc1ccc(CC(=O)Nc2c3c(nn2C(C)(C)C)CS(=O)(=O)C3)cc1,18.4
14,O=C(NCc1ccccn1)c1cccc(NS(=O)(=O)c2cccc(Cl)c2)c1,11.8
15,CC(Sc1nnc(-c2cccnc2)o1)C(=O)NC1CCCCC1 (centres unmarked),14.9
16,Cc1cc(Cl)cc(C)c1OCCOCCNCc1ccccc1.O=C(O)C(=O)O,-52.4
17,Cc1cc(NC(c2cccnc2)c2c(C)[nH]c3ccccc23)no1 (centres unmarked),-0.873
18,CC(=O)Nc1cccc(-c2csc(Nc3cc(C)ccn3)n2)c1,8.87
